Measured values reported in patent US20260200947A1, “FUSED CYCLIC COMPOUNDS AND USE THEREOF” (Jacobio Pharmaceuticals Co., Ltd., priority 2022, published 2026).

Tests used:
[1] = system: AsPC-1 cells (K-Ras G12D)

For `C#Cc1c(F)ccc2cc(N)cc(-c3cc4c5c(nc(OC[C@@]67CCCN6C[C@H](F)C7)nc5c3F)N3[C@@H](C)CCOC[C@H]3N4C)c12` [Compound 44], which IC50 (AGS cells (K-Ras G12D)) is on record?
Its IC50 is 178 nM.

What about the IC50 [1] of the same compound?
Its IC50 is 423 nM.
